In the supplement of paper PMC8728848:
The other results are listed elsewhere or left out.

How the values were obtained:
Experiment in all cases: glycan array binding signal (z-score within array); higher = stronger binding
Conditions in all cases: glycan notation: IUPAC condensed, linker removed
GlcNAc(b1-3)Gal(b1-4)Glc = target: GlcNAc(b1-3)Gal(b1-4)Glc
Method in brief: (§1)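 The Consortium for Functional Glycomics database supplied 3228 glycan arrays, of which those lacking an available protein sequence were dropped. The binding signal, a within-array Z-score, was averaged across arrays of the same protein sequence and across linkers. Negative scores can be read as non-binding.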

[1] = target: GlcNAc(b1-3)[GlcNAc(b1-6)]Gal
Method in brief: as §1

[2] = target: GlcNAc(b1-3)[GlcNAc(b1-6)]Gal(b1-4)GlcNAc(b1-3)[GlcNAc(b1-6)]Gal(b1-4)GlcNAc(b1-3)Gal(b1-4)Glc
Method in brief: as §1

GlcNAc(b1-4)Fuc = target: GlcNAc(b1-4)Fuc
Method in brief: as §1

GlcNAc(b1-4)GlcNAc = target: GlcNAc(b1-4)GlcNAc
Method in brief: as §1

[3] = target: GlcNAc(b1-4)GlcNAc(b1-4)GlcNAc
Method in brief: as §1

[4] = target: GlcNAc(b1-4)GlcNAc(b1-4)GlcNAc(b1-4)GlcNAc
Method in brief: as §1

[5] = target: GlcNAc(b1-4)GlcNAc(b1-4)GlcNAc(b1-4)GlcNAc(b1-4)GlcNAc
Method in brief: as §1

[6] = target: GlcNAc(b1-4)GlcNAc(b1-4)GlcNAc(b1-4)GlcNAc(b1-4)GlcNAc(b1-4)GlcNAc
Method in brief: as §1

[7] = target: GlcNAc(b1-4)GlcNAc(b1-4)GlcNAc(b1-4)GlcNAc(b1-4)GlcNAc(b1-4)GlcNAc(b1-4)GlcNAc
Method in brief: as §1

[8] = target: GlcNAc(b1-4)GlcNAc(b1-4)GlcNAc(b1-4)GlcNAc(b1-4)GlcNAc(b1-4)GlcNAc(b1-4)GlcNAc(b1-4)GlcNAc
Method in brief: as §1

[9] = target: HexA(a1-3)GalNAc4S(b1-4)GlcA(b1-3)GalNAc4S
Method in brief: as §1

[10] = target: HexA(a1-3)GalNAc4S(b1-4)GlcA(b1-3)GalNAc4S(b1-4)GlcA(b1-3)GalNAc4S(b1-4)GlcA(b1-3)GalNAc4S(b1-4)GlcA(b1-3)GalNAc4S(b1-4)GlcA(b1-3)GalNAc4S(b1-4)GlcA(b1-3)GalNAc4S
Method in brief: as §1

[11] = target: HexA(a1-3)GalNAc4S(b1-4)IdoA(a1-3)GalNAc4S
Method in brief: as §1

[12] = target: HexA(a1-3)GalNAc4S(b1-4)IdoA(a1-3)GalNAc4S(b1-4)IdoA(a1-3)GalNAc4S(b1-4)IdoA(a1-3)GalNAc4S(b1-4)IdoA(a1-3)GalNAc4S(b1-4)IdoA(a1-3)GalNAc4S(b1-4)IdoA(a1-3)GalNAc4S
Method in brief: as §1

[13] = target: HexA(a1-3)GalNAc6S(b1-4)GlcA(b1-3)GalNAc6S
Method in brief: as §1

[14] = target: HexA(a1-3)GalNAc6S(b1-4)GlcA(b1-3)GalNAc6S(b1-4)GlcA(b1-3)GalNAc6S(b1-4)GlcA(b1-3)GalNAc6S(b1-4)GlcA(b1-3)GalNAc6S(b1-4)GlcA(b1-3)GalNAc6S(b1-4)GlcA(b1-3)GalNAc6S
Method in brief: as §1

[15] = target: HexA(a1-4)GlcNAc(a1-4)HexA(a1-4)GlcNAc(a1-4)HexA(a1-4)GlcNAc(a1-4)HexA(a1-4)Man
Method in brief: as §1

HexA2S(a1-4)GlcNS6S = target: HexA2S(a1-4)GlcNS6S
Method in brief: as §1

[16] = target: HexA6S(a1-4)GlcNS6S(a1-4)IdoA2S(a1-4)GlcNS6S
Method in brief: as §1

[17] = target: HexA6S(a1-4)GlcNS6S(a1-4)IdoA2S(a1-4)GlcNS6S(a1-4)IdoA2S(a1-4)GlcNS6S(a1-4)IdoA2S(a1-4)GlcNS6S(a1-4)IdoA2S(a1-4)GlcNS6S(a1-4)IdoA2S(a1-4)GlcNS6S(a1-4)IdoA2S(a1-4)GlcNS6S
Method in brief: as §1

[18] = target: Kdn(a2-3)[GalNAc(b1-4)]Gal(b1-3)GlcNAc
Method in brief: as §1

Man(a1-2)Man = target: Man(a1-2)Man
Method in brief: as §1

[19] = target: Man(a1-2)Man(a1-2)Man(a1-3)[Man(a1-2)Man(a1-3)[Man(a1-2)Man(a1-6)]Man(a1-6)]Man(b1-4)GlcNAc(b1-4)GlcNAc
Method in brief: as §1

[20] = target: Man(a1-2)Man(a1-2)Man(a1-3)[Man(a1-2)Man(a1-6)[Man(a1-3)]Man(a1-6)]Man(b1-4)GlcNAc(b1-4)GlcNAc
Method in brief: as §1

[21] = target: Man(a1-2)Man(a1-2)Man(a1-3)[Man(a1-3)[Man(a1-6)]Man(a1-6)]Man(b1-4)GlcNAc(b1-4)GlcNAc
Method in brief: as §1

[22] = target: Man(a1-2)Man(a1-3)[Man(a1-2)Man(a1-6)[Man(a1-3)]Man(a1-6)]Man(b1-4)GlcNAc(b1-4)GlcNAc
Method in brief: as §1

[23] = target: Man(a1-2)Man(a1-3)[Man(a1-3)[Man(a1-6)]Man(a1-6)]Man(b1-4)GlcNAc(b1-4)GlcNAc
Method in brief: as §1

Man(a1-3)Man = target: Man(a1-3)Man
Method in brief: as §1

[24] = target: Man(a1-3)Man(a1-6)[Man(a1-3)]Man(b1-4)GlcNAc(b1-4)GlcNAc
Method in brief: as §1

Man(a1-3)Man(b1-4)GlcNAc = target: Man(a1-3)Man(b1-4)GlcNAc
Method in brief: as §1

Man(a1-3)[Man(a1-6)]Man = target: Man(a1-3)[Man(a1-6)]Man
Method in brief: as §1

[25] = target: Man(a1-3)[Man(a1-6)]Man(a1-6)Man(b1-4)GlcNAc(b1-4)GlcNAc
Method in brief: as §1

[26] = target: Man(a1-3)[Man(a1-6)]Man(a1-6)[Man(a1-3)]Man
Method in brief: as §1

[27] = target: Man(a1-3)[Man(a1-6)]Man(a1-6)[Man(a1-3)]Man(b1-4)GlcNAc(b1-4)GlcNAc
Method in brief: as §1

[28] = target: Man(a1-3)[Man(a1-6)]Man(b1-4)GlcNAc(b1-4)GlcNAc
Method in brief: as §1

[29] = target: Man(a1-3)[Man(a1-6)]Man(b1-4)GlcNAc(b1-4)[Fuc(a1-6)]GlcNAc
Method in brief: as §1

Man(a1-6)Man = target: Man(a1-6)Man
Method in brief: as §1

B1: MIC1 (Toxoplasma gondii), O00834 (protein)
chain: VGPEAYGEASHSHSPASGRYIQQMLDQRCQEIAAELCQSGLRKMCVPSSRIVARNAVGITHQNTLQWRCFDTASLLESNQENNGVNCVDDCGHTIPCPGGVHRQNSNHATRHEILSKLVEEGVQRFCSPYQASANKYCNDKFPGTIARRSKGFGNNVEVAWRCYEKASLLYSVYAECASNCGTTWYCPGGRRGTSTELDKRHYTEEEGIRQAIGSVDSPCSEVEVCLPKDENPPLCLDESGQISRT
- glycan array binding signal (z-score) (GlcNAc(b1-3)Gal(b1-4)Glc): -0.287
- glycan array binding signal (z-score) [1]: -0.287
- glycan array binding signal (z-score) [2]: -0.287
- glycan array binding signal (z-score) (GlcNAc(b1-4)Fuc): -0.287
- glycan array binding signal (z-score) (GlcNAc(b1-4)GlcNAc): -0.292
- glycan array binding signal (z-score) [3]: -0.3
- glycan array binding signal (z-score) [4]: -0.287
- glycan array binding signal (z-score) [5]: -0.287
- glycan array binding signal (z-score) [6]: -0.287
- glycan array binding signal (z-score) [7]: -0.287
- glycan array binding signal (z-score) [8]: -0.287
- glycan array binding signal (z-score) [9]: -0.287
- glycan array binding signal (z-score) [10]: -0.306
- glycan array binding signal (z-score) [11]: -0.299
- glycan array binding signal (z-score) [12]: -0.312
- glycan array binding signal (z-score) [13]: -0.291
- glycan array binding signal (z-score) [14]: -0.312
- glycan array binding signal (z-score) [15]: -0.337
- glycan array binding signal (z-score) (HexA2S(a1-4)GlcNS6S): -0.242
- glycan array binding signal (z-score) [16]: -0.269
- glycan array binding signal (z-score) [17]: 0.219
- glycan array binding signal (z-score) [18]: -0.274
- glycan array binding signal (z-score) (Man(a1-2)Man): -0.287
- glycan array binding signal (z-score) [19]: -0.354
- glycan array binding signal (z-score) [20]: -0.311
- glycan array binding signal (z-score) [21]: -0.293
- glycan array binding signal (z-score) [22]: -0.312
- glycan array binding signal (z-score) [23]: -0.312
- glycan array binding signal (z-score) (Man(a1-3)Man): -0.287
- glycan array binding signal (z-score) [24]: -0.312
- glycan array binding signal (z-score) (Man(a1-3)Man(b1-4)GlcNAc): -0.287
- glycan array binding signal (z-score) (Man(a1-3)[Man(a1-6)]Man): -0.302
- glycan array binding signal (z-score) [25]: -0.312
- glycan array binding signal (z-score) [26]: -0.288
- glycan array binding signal (z-score) [27]: -0.308
- glycan array binding signal (z-score) [28]: -0.312
- glycan array binding signal (z-score) [29]: -0.29
- glycan array binding signal (z-score) (Man(a1-6)Man): -0.312
